These are yes or no findings as the source states them, for the method shown. Some results given as binding are weak or reduced against the parent protein; the word gives no strength.
Key:
Assay in all cases: peptide or protein array; Invitrogen Protoarray v4.0, about 8,400 human proteins spotted on nitrocellulose-coated glass slides; 10 µg biotinylated tag-free NEMO in 120 µl probing buffer (PBS, 0.5 mM DTT, 5 mM MgCl2, 5% glycerol, 0.05% Triton X-100), 4°C, 1.5 h; bound NEMO detected with labelled streptavidin; hits Z-score > 3, hits of the biotin-GST control array subtracted; both purified
Septin 9 (human) = molecular target: T1, Septin 9 (human) (UniProt Q9UHD8)
T1 sequence: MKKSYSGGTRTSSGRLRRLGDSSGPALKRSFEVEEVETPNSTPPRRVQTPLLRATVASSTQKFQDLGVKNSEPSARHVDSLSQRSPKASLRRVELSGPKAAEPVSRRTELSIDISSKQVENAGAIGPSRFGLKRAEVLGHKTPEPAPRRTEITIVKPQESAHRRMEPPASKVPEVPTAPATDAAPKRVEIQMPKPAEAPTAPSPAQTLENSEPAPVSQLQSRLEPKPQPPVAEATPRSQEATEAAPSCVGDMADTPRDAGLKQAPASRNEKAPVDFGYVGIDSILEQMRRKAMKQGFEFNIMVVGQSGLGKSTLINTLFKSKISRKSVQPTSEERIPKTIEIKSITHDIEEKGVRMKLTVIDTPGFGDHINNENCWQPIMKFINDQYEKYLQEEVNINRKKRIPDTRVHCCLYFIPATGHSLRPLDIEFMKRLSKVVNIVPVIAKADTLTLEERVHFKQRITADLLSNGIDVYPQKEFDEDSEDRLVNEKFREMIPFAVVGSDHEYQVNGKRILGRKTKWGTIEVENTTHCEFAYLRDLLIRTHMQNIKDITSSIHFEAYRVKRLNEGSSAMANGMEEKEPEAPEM

The chains behind the UniProt entries cited, without tags or fusion partners. Where a name states a change or a piece, a line headed by the entry shows the natural chain unless it says otherwise. Residues count along the entry.
UniProt P53355: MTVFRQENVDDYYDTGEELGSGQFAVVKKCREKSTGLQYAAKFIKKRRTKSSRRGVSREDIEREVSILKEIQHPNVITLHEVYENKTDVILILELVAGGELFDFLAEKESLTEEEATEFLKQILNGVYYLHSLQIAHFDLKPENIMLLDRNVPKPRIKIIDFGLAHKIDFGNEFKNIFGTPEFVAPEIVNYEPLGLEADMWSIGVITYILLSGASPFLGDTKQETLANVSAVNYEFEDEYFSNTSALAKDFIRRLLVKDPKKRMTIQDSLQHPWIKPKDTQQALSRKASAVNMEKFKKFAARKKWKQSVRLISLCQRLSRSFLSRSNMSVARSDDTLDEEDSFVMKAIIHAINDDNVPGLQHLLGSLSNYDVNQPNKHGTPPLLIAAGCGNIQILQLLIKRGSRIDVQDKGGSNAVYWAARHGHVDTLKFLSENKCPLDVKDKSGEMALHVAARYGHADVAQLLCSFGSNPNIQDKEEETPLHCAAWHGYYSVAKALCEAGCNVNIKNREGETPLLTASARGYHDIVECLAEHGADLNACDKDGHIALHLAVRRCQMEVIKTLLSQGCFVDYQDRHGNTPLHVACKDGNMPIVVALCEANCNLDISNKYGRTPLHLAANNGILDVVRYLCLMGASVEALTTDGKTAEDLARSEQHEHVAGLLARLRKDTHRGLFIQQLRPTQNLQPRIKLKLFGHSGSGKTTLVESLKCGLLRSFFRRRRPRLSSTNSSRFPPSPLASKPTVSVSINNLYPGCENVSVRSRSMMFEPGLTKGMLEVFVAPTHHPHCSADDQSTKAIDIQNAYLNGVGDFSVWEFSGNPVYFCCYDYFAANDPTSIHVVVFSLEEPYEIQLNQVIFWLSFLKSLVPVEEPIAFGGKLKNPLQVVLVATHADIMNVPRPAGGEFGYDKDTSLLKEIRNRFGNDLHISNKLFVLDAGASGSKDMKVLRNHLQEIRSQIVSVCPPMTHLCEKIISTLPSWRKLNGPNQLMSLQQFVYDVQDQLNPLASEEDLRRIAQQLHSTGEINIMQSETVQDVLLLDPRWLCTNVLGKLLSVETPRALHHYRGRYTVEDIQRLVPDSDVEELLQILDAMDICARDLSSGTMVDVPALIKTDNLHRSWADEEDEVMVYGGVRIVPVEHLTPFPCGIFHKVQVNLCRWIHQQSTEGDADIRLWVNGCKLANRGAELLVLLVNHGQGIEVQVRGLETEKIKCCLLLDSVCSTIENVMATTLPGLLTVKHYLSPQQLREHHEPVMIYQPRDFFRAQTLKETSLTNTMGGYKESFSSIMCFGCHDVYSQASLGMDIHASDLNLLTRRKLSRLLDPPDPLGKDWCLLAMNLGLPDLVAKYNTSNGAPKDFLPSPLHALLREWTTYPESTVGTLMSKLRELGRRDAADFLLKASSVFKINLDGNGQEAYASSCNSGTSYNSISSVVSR
UniProt O14893, residues 12-280: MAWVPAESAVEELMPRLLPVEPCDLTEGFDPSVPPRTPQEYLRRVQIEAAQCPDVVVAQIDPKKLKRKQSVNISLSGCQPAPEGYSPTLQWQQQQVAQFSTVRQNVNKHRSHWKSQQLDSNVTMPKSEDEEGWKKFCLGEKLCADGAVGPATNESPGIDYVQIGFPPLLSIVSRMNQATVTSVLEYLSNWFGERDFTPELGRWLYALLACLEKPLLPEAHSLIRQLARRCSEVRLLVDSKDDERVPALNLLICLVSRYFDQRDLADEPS

Phosducin-like (human) = molecular target: T2, Phosducin-like (human) (UniProt Q13371)
T2 sequence: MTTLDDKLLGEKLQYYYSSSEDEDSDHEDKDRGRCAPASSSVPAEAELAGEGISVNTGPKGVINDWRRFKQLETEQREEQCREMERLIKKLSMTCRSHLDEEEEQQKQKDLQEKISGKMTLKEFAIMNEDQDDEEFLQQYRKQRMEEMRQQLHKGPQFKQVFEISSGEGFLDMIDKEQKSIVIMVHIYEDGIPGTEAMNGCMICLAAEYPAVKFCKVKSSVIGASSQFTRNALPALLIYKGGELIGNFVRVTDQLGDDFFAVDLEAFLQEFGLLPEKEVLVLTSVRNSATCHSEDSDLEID

[1] = molecular target: Death-associated protein kinase 1 (human) (UniProt P53355)
[2] = molecular target: T3, Lectin, galactoside-binding, soluble, 2 (galectin 2) (human) (UniProt P05162)
T3 sequence: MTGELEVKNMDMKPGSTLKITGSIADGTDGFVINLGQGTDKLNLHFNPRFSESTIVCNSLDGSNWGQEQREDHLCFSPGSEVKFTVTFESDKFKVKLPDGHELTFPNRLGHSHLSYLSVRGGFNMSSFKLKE

[3] = molecular target: Survival of motor neuron protein interacting protein 1, transcript variant alpha (human) (UniProt O14893)
[4] = molecular target: T4, TFS2-M domain-containing protein 1 (human) (UniProt Q8N8B7)
T4 sequence: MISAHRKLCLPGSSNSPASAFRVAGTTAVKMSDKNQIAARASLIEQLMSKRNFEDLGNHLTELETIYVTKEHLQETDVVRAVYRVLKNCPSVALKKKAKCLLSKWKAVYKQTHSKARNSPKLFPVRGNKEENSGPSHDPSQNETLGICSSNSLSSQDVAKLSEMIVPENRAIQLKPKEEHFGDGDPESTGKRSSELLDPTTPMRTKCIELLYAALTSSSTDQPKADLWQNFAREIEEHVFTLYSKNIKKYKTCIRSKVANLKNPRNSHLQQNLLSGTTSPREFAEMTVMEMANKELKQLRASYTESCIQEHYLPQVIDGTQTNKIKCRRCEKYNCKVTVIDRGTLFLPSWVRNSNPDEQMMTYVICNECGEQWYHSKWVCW

Measured: binding

NEMO (NF-κB essential modulator), tag-free, biotinylated (from UniProt Q9Y6K9 1-419)
binds: all assays above
